Assay results from publication PMC4336329 (PLoS ONE, 2015).
The whole screen tested about 310,000 compounds, of which about 14,000 (4.5%) showed an effect of 50% or more. Effects have a minus sign here. The list shows a part of the results.

What follows are molecules tested against human ether-à-go-go-related gene (hERG) potassium channel (human, UniProt Q12809) (assay: primary screen, population patch clamp on CHO cells stably expressing hERG).
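Also: peak tail current of the secondary pulse compared with the same well before compound.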

Sequence of human ether-à-go-go-related gene (hERG) potassium channel (Q12809 whole entry, looked up): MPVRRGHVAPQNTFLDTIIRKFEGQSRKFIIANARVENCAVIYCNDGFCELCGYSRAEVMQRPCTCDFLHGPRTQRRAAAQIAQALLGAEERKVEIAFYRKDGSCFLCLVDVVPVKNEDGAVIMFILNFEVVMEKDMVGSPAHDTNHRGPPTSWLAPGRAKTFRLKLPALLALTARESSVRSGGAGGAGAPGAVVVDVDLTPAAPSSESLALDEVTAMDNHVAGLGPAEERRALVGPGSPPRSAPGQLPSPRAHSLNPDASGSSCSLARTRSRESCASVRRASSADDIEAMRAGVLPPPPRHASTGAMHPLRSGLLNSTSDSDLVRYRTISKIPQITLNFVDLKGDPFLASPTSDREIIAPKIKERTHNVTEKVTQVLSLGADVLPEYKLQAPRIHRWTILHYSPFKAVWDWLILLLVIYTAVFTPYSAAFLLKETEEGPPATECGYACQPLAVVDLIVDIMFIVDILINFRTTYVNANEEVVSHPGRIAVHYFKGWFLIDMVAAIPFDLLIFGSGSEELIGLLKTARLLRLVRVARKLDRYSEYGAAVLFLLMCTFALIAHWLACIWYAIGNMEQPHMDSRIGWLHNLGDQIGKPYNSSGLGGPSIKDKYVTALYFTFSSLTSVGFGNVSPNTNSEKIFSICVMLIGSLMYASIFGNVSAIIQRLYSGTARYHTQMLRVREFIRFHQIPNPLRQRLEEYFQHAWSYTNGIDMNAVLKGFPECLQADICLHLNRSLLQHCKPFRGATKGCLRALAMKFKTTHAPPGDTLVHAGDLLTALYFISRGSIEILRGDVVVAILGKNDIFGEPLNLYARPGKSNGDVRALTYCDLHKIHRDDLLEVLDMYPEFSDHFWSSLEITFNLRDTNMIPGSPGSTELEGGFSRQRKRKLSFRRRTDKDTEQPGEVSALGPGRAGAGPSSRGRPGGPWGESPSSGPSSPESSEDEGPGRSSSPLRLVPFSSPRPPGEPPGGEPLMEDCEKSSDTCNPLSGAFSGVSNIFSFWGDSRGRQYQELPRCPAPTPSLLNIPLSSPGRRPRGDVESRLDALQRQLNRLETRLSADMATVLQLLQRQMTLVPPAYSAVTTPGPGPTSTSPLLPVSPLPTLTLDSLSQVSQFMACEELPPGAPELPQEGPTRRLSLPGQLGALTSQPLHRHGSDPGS

SMILES	hERG current change (%, negative = inhibition) at 10uM [%]
COc1ccc(C2(CNC(=O)c3ccc(OC)c([N+](=O)[O-])c3)CCCCC2)cc1OC	-20.7
Cn1ccnc1SCC(=O)Nc1cccc(S(=O)(=O)N2CCCCCC2)c1	-33.5
Cc1ccnc(NC(=O)c2ccc(Br)s2)c1.Cl	-5.88
CCCn1c(=O)[nH]c(=O)c2c1nc(-c1ccccc1)n2CCN1CCOCC1	-15.3
O=C(CCNC(=O)c1ccc(Br)cc1)NCc1cccnc1	-0.472
O=C(Nc1cccc(S(=O)(=O)N2CCCC2)c1)c1ccccc1OC(F)F	-13.7
Oc1ccc(Br)cc1CNc1cnc2ccccc2c1	16.4
O=S(=O)(NC1CCCCC1Oc1ccccc1)c1ccc(Cl)cc1 (stereo not drawn)	-13.1
O=C(C[n+]1cn(C(F)F)c2ccccc21)c1ccc(Br)cc1.[Br-]	-9.95
COc1ccc(S(=O)(=O)N2CCOCC2)cc1NC(=O)CNC(=O)c1cccs1	7.47
CCc1ccc(NC(=O)[C@H](NC(=O)[C@@H]2Cc3ccccc3CN2)c2ccccc2)cc1	-55
CCCNS(=O)(=O)c1ccc(OCC(=O)Nc2ccc3c(c2)OCCO3)cc1	-3.72
Cc1[nH]c(=O)[nH]c(=O)c1S(=O)(=O)N1CCCC(C(=O)NCCc2ccccc2)C1 (stereo not drawn)	16.5
CCc1cccc2c(C=C(C#N)C#N)cn(CC(=O)N3CCCCCC3)c12	4.86
COc1ccc(S(=O)(=O)N2CCC(C(=O)N3CCCC3)CC2)cc1	-3.42
CN(CC(=O)Nc1ccccc1C(=O)NC1CC1)Cc1ccc(Cl)s1	-40.7
COc1cc(C=O)c(Cl)cc1OCC(N)=O	6.54
COc1ccc(OC)c(CCNC(=O)C(C)n2nc(C)c3c(C)n(-c4ccccc4)nc3c2=O)c1 (stereo not drawn)	-0.756
CN1C(=O)C(O)(C2CCCCCC2=O)c2ccccc21 (stereo not drawn)	4.45
CC1(C)CC(=O)C2=C(C1)OC(N)=C(C#N)C2c1ccc(OC(=O)N2CCOCC2)cc1 (stereo not drawn)	-5.53
O=C(NC1CC1)c1ccc(NS(=O)(=O)c2ccc(F)cc2)cc1	-33.8
O=C(O)c1nn(Cc2csc(-c3ccccc3)n2)c(=O)c2ccccc12	23.1
c1ccc(COc2cccc(CNn3cnnc3)c2)cc1	2.73
CCC(CC)C(=O)N1N=C(c2ccc(NS(C)(=O)=O)cc2)CC1c1ccccc1 (stereo not drawn)	-41.4
